This is one part of the list. At the low end of the ranking the order means little.

The test addresses SIX1 homeodomain (reference allele) (UniProt Q15475). Kind of test: universal protein binding microarray. The settings on record: Universal all-10-mer PBM (8x60K, AMADID 030236), 300 nM GST-tagged protein, Alexa Fluor 488 anti-GST; buffer, salt, pH and temperature not stated; high values mean tight binding; most listed sequences are background and not binding sites; double strand, one strand shown.
Regarding ATTTCTGA, the binding signal was -0.15 E-score.
As for GTATACCA, the binding signal amounted to 0.364 E-score.
Then CGTTTCCA, with -0.222 E-score; and AGTTGAAG, with -0.114 E-score.
For GATGAGTA the value was 0.135 E-score; for ATAGGAGC, -0.047 E-score.
Then CGATAGGA, with 0.26 E-score.
Turning to AGGCGAAT, the binding signal was -0.097 E-score.
For CACATTGG, the binding signal was -0.0156 E-score.
Then CTAATTAC, with -0.248 E-score; and ACGACGGG, with -0.0227 E-score.
AATTACAC: the binding signal was determined as 0.0473 E-score.
For ACAGTTCG the value was -0.188 E-score; for AACGCAAT, -0.0842 E-score; for ACAGTCAG, 0.0476 E-score.
Regarding CGCGCTCA, the binding signal was -0.065 E-score.
For GTTGCAAC the value was -0.158 E-score; for GCTTACAA, -0.0765 E-score; for ACCGGGAG, -0.0349 E-score.
As to ATTAAGGG, the binding signal was -0.0808 E-score.
Turning to TCGACAGA, the binding signal is -0.101 E-score.
Then ACCGGACC, with -0.0544 E-score.
Regarding CGGCCGAC, the binding signal was -0.131 E-score.
Consider GTCGCCAC, for which the binding signal is -0.219 E-score.
Consider GTTTTGCA, for which the binding signal was -0.0257 E-score.
Consider CCTGCTCA, for which the binding signal was 0.0754 E-score.
Then CAAATCTC, with -0.203 E-score; and ATTTATTC, with -0.148 E-score.
On to ATATTCCC, for which the binding signal was determined as 0.305 E-score.
With AGAAGGAT, the binding signal came to 0.252 E-score.
For CGGTGTGA the value was 0.204 E-score; for AGAGATTG, 0.0402 E-score; for GAGCCAGC, -0.0938 E-score.
Then ACTTTTCT, with -0.156 E-score; and CACATAAC, with -0.194 E-score; and GGAACTTA, with -0.0285 E-score.
For the sequence AGATATCT, the binding signal was determined as 0.385 E-score.
Turning to TGACAACA, the binding signal was -0.0963 E-score.
In the case of ACACACAG, the binding signal stood at 0.0893 E-score.
Consider AAATTAAT, for which the binding signal is -0.0414 E-score.
Turning to GGGTCTTA, the binding signal turned out to be 0.0129 E-score.
Turning to ATTAGGTG, the binding signal was 0.138 E-score.
As to GAGTGTAC, the binding signal stood at 0.0815 E-score.
Then ACAATTTG, with -0.204 E-score; and TACAATAA, with 0.000795 E-score.
Regarding CTTCTTTC, the binding signal was -0.221 E-score.
Then AGAACACG, with 0.0747 E-score; and CACATGTC, with -0.267 E-score.
Regarding CGCGATAA, the binding signal is 0.0708 E-score.
For CCGCCTGC the value was 0.0208 E-score; for ATATATTA, 0.289 E-score.
With AGCCCGCA, the binding signal was -0.0406 E-score.
Regarding CGGGTGAC, the binding signal is -0.0883 E-score.
In the case of CCTCCCAG, the binding signal is -0.0499 E-score.
On to GACTATAA, for which the binding signal is -0.187 E-score.
CCGCTGAC: the binding signal is -0.0648 E-score.
Consider ATCTAACA, for which the binding signal stood at 0.125 E-score.
Take CTTAGCCA: the binding signal was 0.0299 E-score.
For AACTCTCG, the binding signal was -0.25 E-score.
Then AGAGAGAT, with 0.204 E-score; and CGTCGTGA, with -0.0144 E-score.
Then CATGAACG, with -0.0294 E-score; and ACGCATAT, with 0.233 E-score.
Then CAGCGTAA, with -0.0846 E-score; and ATGGAAGC, with -0.168 E-score.
Turning to CAATGTCC, the binding signal is -0.131 E-score.
AACCGGCA: the binding signal was -0.135 E-score.
As to AGCAGTAG, the binding signal is -0.158 E-score.
With AGGCCGTG, the binding signal is -0.152 E-score.
For TACCTCGA the value was 0.159 E-score; for AGGACGGG, -0.137 E-score; for ATTCAGCC, -0.114 E-score.
Then ATTTTTCA, with -0.0382 E-score.
Then ATGCACCG, with -0.152 E-score; and AGATGGTG, with 0.149 E-score.
In the case of CGCCGGCC, the binding signal is -0.0948 E-score.
For GAGCATTA the value was -0.135 E-score.
On to AATTTGGC, for which the binding signal is -0.263 E-score.
AGTCGAAA: the binding signal was -0.19 E-score.
ACTTTATC: the binding signal was found to be 0.0109 E-score.
For GTCCCAAC the value was -0.163 E-score.
With CAGGACGC, the binding signal was -0.0172 E-score.
For GTAACAAA the value was -0.231 E-score; for GATGTGAC, -0.121 E-score; for ACCTGCTG, 0.0389 E-score.
Take CCTACATA: the binding signal is 0.0147 E-score.
Regarding GCAGATAC, the binding signal was determined as 0.375 E-score.
For GGACAGAA the value was -0.177 E-score; for CTGAACAC, 0.0251 E-score; for CATTTATC, -0.067 E-score.
For CCAGCAGC the value was -0.235 E-score; for ATCATTTC, 0.196 E-score.
As for CTGTTACC, the binding signal was -0.12 E-score.
For CACCGTCC the value was 0.0327 E-score.
Turning to AAACGTTG, the binding signal is -0.173 E-score.
For ATGCCGTC, the binding signal stood at 0.11 E-score.
Take GGTTCGGA: the binding signal stood at 0.0581 E-score.
Then AGGGACAA, with -0.171 E-score; and ACCCAGCT, with 0.181 E-score.
For ACAATCTC the value was 0.153 E-score; for ACGAAACC, 0.119 E-score.
For the sequence TAGACAGA, the binding signal was -0.0581 E-score.
For GCAACGAA the value was -0.0389 E-score.
GGTATGTA: the binding signal is 0.213 E-score.
In the case of CTGTGCGA, the binding signal was -0.118 E-score.
Consider CCACTCAG, for which the binding signal was -0.0232 E-score.
For the sequence GCCTGCAA, the binding signal is -0.108 E-score.
As to AGCTTGGA, the binding signal is -0.228 E-score.
Take GTCAGCTA: the binding signal is -0.069 E-score.
Take ACTAGCGA: the binding signal was 0.118 E-score.
In the case of ACGGAGCG, the binding signal is -0.14 E-score.
Then AATTGCGC, with -0.0775 E-score; and GAGAGTCA, with -0.21 E-score.
Then CTACAGGC, with -0.0787 E-score; and CTAGCCAC, with -0.153 E-score.
For ATAGTACG the value was 0.209 E-score; for CCTGAGCG, -0.0498 E-score.
For CTGCGAAC, the binding signal is -0.291 E-score.
Then CGTTGTGA, with -0.0448 E-score; and CACAAACC, with -0.146 E-score.
Consider CTATCCGA, for which the binding signal came out at 0.33 E-score.
Consider ATCTGTAC, for which the binding signal worked out at 0.221 E-score.
Take CCATCTAA: the binding signal was 0.0697 E-score.
For CTGGTCTA the value was 0.201 E-score; for TTCACCAA, -0.164 E-score.
For TCTTGCCA the value was -0.0906 E-score; for AGTGATGG, -0.157 E-score; for ATCGTTTA, 0.117 E-score.
As for AATCCCCC, the binding signal is 0.261 E-score.
Then AATTATGA, with -0.0408 E-score; and CGCCTAGC, with -0.124 E-score.
As for CCATGTCG, the binding signal was -0.0364 E-score.
As for AATAGATC, the binding signal is 0.305 E-score.
Turning to AGCATAGA, the binding signal is -0.0509 E-score.
Consider GGTCAGAA, for which the binding signal is -0.245 E-score.
Then ACGGGCCT, with -0.0877 E-score; and CATAAGGG, with -0.0763 E-score.
Then TCATCTCA, with 0.298 E-score; and AGTGCATC, with 0.00602 E-score.
For TGCATGCA the value was -0.142 E-score.
As to AGGTGGTA, the binding signal came to 0.138 E-score.
Consider ACCGCCTA, for which the binding signal was 0.0495 E-score.
For ACGTCAGG, the binding signal was -0.232 E-score.
Then AGTATCCG, with 0.396 E-score.
Then ATCACTGC, with 0.317 E-score; and TGCAGAAA, with -0.172 E-score; and GGGTGATA, with 0.46 E-score.
Then AGAGCCGG, with -0.105 E-score; and CGAACTCC, with -0.12 E-score.
With AACGCAGA, the binding signal turned out to be 0.0282 E-score.
For AAGTAAGC the value was -0.217 E-score.
CGGGTTAG: the binding signal is -0.07 E-score.
In the case of ATACACCG, the binding signal is 0.398 E-score.
Then AGAAGTCC, with -0.243 E-score.
For ATTGTTAA the value was -0.169 E-score; for TACCTCTA, 0.204 E-score; for CGAATCAG, -0.103 E-score.
On to AGAGCTGA, for which the binding signal came to 0.0219 E-score.
Regarding CTTAAGCA, the binding signal is -0.165 E-score.
For CACTAACG the value was -0.166 E-score.
For the sequence ATTTTTAA, the binding signal was -0.125 E-score.
For ACCTTACA the value was -0.118 E-score; for GTTTAAAC, -0.108 E-score.
Then AACCTACT, with -0.111 E-score; and GTAACCAA, with -0.000845 E-score; and CAGGGGAC, with -0.0214 E-score.
Then ATCTGTGG, with 0.0795 E-score; and AACTATTC, with -0.204 E-score; and CGCTCTCA, with -0.0452 E-score.
As for ACGGGCAC, the binding signal is -0.00462 E-score.
On to CAGCCTGC, for which the binding signal is -0.107 E-score.
As to CCTCCGCC, the binding signal was 0.0994 E-score.

The values are drawn from PMC10668032.
